Structures can show the parent of a compound that is named as a salt. Some of the results follow. Single values are uncertain, as repeats are few or missing.

The assay concerns Ov4Carbo. The assay can be described thus: log2 surviving fraction (library drug vs vehicle, or drug + carboplatin vs carboplatin alone; relative to plate median); ovarian cancer lines: OVCAR4 is platinum-sensitive and Ov4Carbo platinum-resistant; higher = more cell survival. The note with it: library drug concentration 10 µM; 7 days; carboplatin co-treatment 0 µM.
On to `Clc1ccc2nsnc2c1NC1=NCCN1` [Tizanidine HCl], for which the log2 surviving fraction worked out at 1.08.
As to `C[C@]12CCC(=O)C=C1CC[C@@H]1[C@@H]2[C@@H](O)C[C@@]2(C)[C@H]1CC[C@]2(O)C(=O)CO` [Hydrocortisone (Cortisol)], the log2 surviving fraction was -0.188.
As for `CN(C)c1cc(NC(=O)CNC(C)(C)C)c(O)c2c1C[C@H]1C[C@H]3[C@H](N(C)C)C(O)=C(C(N)=O)C(=O)[C@@]3(O)C(O)=C1C2=O` [Tigecycline], the figure is 0.912; as for `O=c1ccc2ccccc2o1` [Coumarin], -1.13; as for `C[C@]12C=CC(=O)C=C1CC[C@@H]1[C@@H]2[C@@H](O)C[C@@]2(C)[C@H]1CC[C@]2(O)C(=O)CO` [Prednisolone (Hydroretrocortine)], 0.977.
Then `C[C@H](CS)C(=O)N1CCC[C@H]1C(=O)O` [Captopril (Capoten)], with 1.02.
As for `CC(=O)N[C@@H](CS)C(=O)O` [Acetylcysteine], the figure is 0.608; as for `CN(C)CCCN1c2ccccc2Sc2ccc(C(F)(F)F)cc21` [Triflupromazine HCl], -3.18; as for `Cc1ccc(C(=O)c2ccc(CC(=O)O)n2C)cc1` [Tolmetin Sodium], 0.453.
On to `C[C@@H]1C(=O)O[C@H]2C[C@@]34[C@H]5C[C@@H](C(C)(C)C)[C@]36[C@@H](OC(=O)[C@@H]6O)O[C@@]4(C(=O)O5)[C@]21O` [Ginkgolide A], for which the log2 surviving fraction came out at 0.244.
As for `CN1CCC[C@@H]1CCO[C@](C)(c1ccccc1)c1ccc(Cl)cc1` [Clemastine Fumarate], the figure is -1.89; as for `NCCc1c[nH]cn1` [Histamine Phosphate], 1.16; as for `CN(C)C(=O)Oc1ccc[n+](C)c1` [Pyridostigmine Bromide (Mestinon)], 0.311.
Then `O=C(O)[C@H](CC(=O)N1C[C@H]2CCCC[C@H]2C1)Cc1ccccc1` [Mitiglinide calcium], with 1.9; and `N[C@@H](Cc1cc(I)c(Oc2cc(I)c(O)c(I)c2)c(I)c1)C(=O)O` [L-Thyroxine], with 0.764.
As for `CN(C/C=C/C#CC(C)(C)C)Cc1cccc2ccccc12` [Terbinafine hydrochloride (Lamisil)], the figure is 0.657; as for `CC(C)c1nc(CN(C)C(=O)N[C@@H](CCN2CCOCC2)C(=O)N[C@H](CC[C@H](Cc2ccccc2)NC(=O)OCc2cncs2)Cc2ccccc2)cs1` [Cobicistat (GS-9350)], -2.65; as for `CS(=O)(=O)OCCCCOS(C)(=O)=O` [Busulfan (Myleran, Busulfex)], 0.676.
Take `CN(C)c1ccc(O)c2c1C[C@H]1C[C@H]3[C@H](N(C)C)C(O)=C(C(N)=O)C(=O)[C@@]3(O)C(O)=C1C2=O` [Minocycline HCl]: the log2 surviving fraction is 0.558.
As for `CCCCCCCCCCCCCCCCO` [1-Hexadecanol], the log2 surviving fraction is -0.224.
Then `COc1cc2nc(N3CCN(C(=O)c4ccco4)CC3)nc(N)c2cc1OC` [Prazosin HCl], with -0.915; and `C=CC(=O)N1CCC[C@@H](n2nc(-c3ccc(Oc4ccccc4)cc3)c3c(N)ncnc32)C1`, with -3.55.
Then `C=C1/C(=C\C=C2/CCC[C@]3(C)[C@@H]([C@H](C)CCCC(C)(C)O)CC[C@@H]23)C[C@@H](O)C[C@@H]1O` [Calcitriol (Rocaltrol)], with -0.54; and `CCN1CCCC1CNC(=O)c1cc(S(=O)(=O)CC)c(N)cc1OC` (stereo not given) [Amisulpride], with 0.758; and `CC1(C)O[C@@H]2C[C@H]3[C@@H]4C[C@H](F)C5=CC(=O)C=C[C@]5(C)[C@@]4(F)[C@@H](O)C[C@]3(C)[C@]2(C(=O)CO)O1` [Fluocinolone acetonide (Flucort-N)], with 0.435.
Turning to `COC(c1ccccc1)(c1ccccc1)[C@H](Oc1nc(C)cc(C)n1)C(=O)O` [Ambrisentan], the log2 surviving fraction turned out to be 0.389.
As for `CC(C)(C)NCC(O)c1ccc(O)c(CO)c1` (stereo not given) [Salbutamol sulfate (Albuterol)], the log2 surviving fraction was -0.54.
With `CCOc1cc(CC(=O)N[C@@H](CC(C)C)c2ccccc2N2CCCCC2)ccc1C(=O)O` [Repaglinide], the log2 surviving fraction amounted to 1.19.
On to `CCn1cc(C(=O)O)c(=O)c2cc(F)c(N3CCN(C)CC3)cc21` [Pefloxacin mesylate], for which the log2 surviving fraction was 0.392.
Consider `CCN(CC)CCOC(=O)c1ccc(N)cc1` [Procaine (Novocaine) HCl], for which the log2 surviving fraction stood at 0.771.
For `CC(C)NCC(O)c1ccc(O)c(O)c1` (stereo not given) [Isoprenaline hydrochloride], the log2 surviving fraction came to 1.24.
For `CN(C)CCCN1c2ccccc2CCc2ccc(Cl)cc21` [Clomipramine hydrochloride (Anafranil)], the log2 surviving fraction is -2.66.
Consider `CC(=O)[C@H]1CC[C@H]2[C@@H]3C[C@H](C)C4=CC(=O)CC[C@]4(C)[C@H]3[C@@H](O)C[C@]12C` [Medrysone], for which the log2 surviving fraction was -0.267.
As for `N=C(N)NS(=O)(=O)c1ccc(N)cc1` [Sulfaguanidine], the figure is -0.367.
On to `CN(N=O)C(=O)N[C@@H](C=O)[C@@H](O)[C@H](O)[C@H](O)CO` [Streptozotocin (Zanosar)], for which the log2 surviving fraction is 0.457.
In the case of `CCCCC1=NC2(CCCC2)C(=O)N1Cc1ccc(-c2ccccc2-c2nnn[nH]2)cc1` [Irbesartan (Avapro)], the log2 surviving fraction is -1.83.
As for `O=C(O)C1=CO[C@@H](O[C@@H]2O[C@H](CO)[C@@H](O)[C@H](O)[C@H]2O)[C@@H]2C(CO)=CC[C@H]12` [Geniposidic acid], the figure is 1.51; as for `CCOC(=O)c1c(CSc2ccccc2)n(C)c2cc(Br)c(O)c(CN(C)C)c12` [Arbidol HCl], -0.671.
With `CC(=O)OC[C@H]1O[C@@H]([S-])[C@H](OC(C)=O)[C@@H](OC(C)=O)[C@@H]1OC(C)=O.CCP(CC)CC.[Au+]` [Auranofin], the log2 surviving fraction is -7.91.
Then `C[C@]12CC[C@H]3[C@@H](CC[C@@]45O[C@@H]4C(O)=C(C#N)C[C@]35C)[C@@H]1CC[C@@H]2O` [Trilostane], with 0.576.
